Molecules are shown by their SMILES.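 Cultured in 96-well plates, cells were exposed to test compound for 48 hours across five concentrations. GI50: concentration for 50% inhibition of growth. TGI is the concentration that stops growth completely.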 Peptide text beside a SMILES is read from it. * marks the point of attachment. Cbz = O=C(OCc1ccccc1)*

The assay concerns NCI-H322M lung. Description: NCI-60 cell line screen, 48 h.

The compound `CCC1CCC2c3c([nH]c4ccc(C)cc34)C3C(=O)N(N(C)C)C(=O)C3C2C1` (centres undefined) returned a TGI above 100 µM.

Regarding `[Cu+2].[NH-]C(CC(=O)O)C(=O)O.[NH-]C(CC(=O)O)C(=O)O` (centres undefined), the GI50 was 38.3 µM and the TGI is above 100 µM.

Regarding `C=C1C(=O)C2=CC1CCC(=O)C1(C)CCC(OC(C)=O)C(C)(C)C1CC2O` (centres undefined), the TGI is 29.4 µM.

Compound `CC(C)(C)n1c(=O)n2n(c1=O)C1c3cccc4cccc(c34)C2C2c3cccc4cccc(c34)C1n1c(=O)n(C(C)(C)C)c(=O)n12` returned a TGI above 100 µM.

Consider `CNC(=O)c1cccc(C#Cc2cncnc2Nc2ccc(OCc3cccc(F)c3)c(Cl)c2)c1`, for which the GI50 is 3.08 µM and the TGI amounted to 19.7 µM.

Take `C=CC(=O)N1CC[C@H](n2nc(C#Cc3cc(OC)cc(OC)c3)c3c(N)ncnc32)C1`: the GI50 is 7.28 µM and the TGI is above 100 µM.

The compound `COc1ccccc1NC(=O)CC(=O)N1N=C(c2ccccc2)C(N=Nc2ccc(Cl)cc2)C1=O` (centres undefined) returned a TGI above 100 µM.

Compound `CC(C)OP(=O)(OC(C)C)C(=NCCN=C(NNc1ccccc1[N+](=O)[O-])P(=O)(OC(C)C)OC(C)C)NNc1ccccc1[N+](=O)[O-]` gave a TGI above 100 µM.

For the compound `O=C(O)C12CCC(CC1=O)C2` (centres undefined), the TGI is above 100 µM.

In turn, `CC1(C)CCCCCCCCCC2CC2CCC(C)(C)C1=O` (centres undefined) returned a TGI of 48.2 µM.

Turning to `COc1ccc(OC)c(/C=C/c2ccnc3ccccc23)c1`, the TGI is 17.5 µM.

`COc1ccc2nc3cccc([N+](=O)[O-])c3c(NC(C)CN(C)C)c2c1` (centres undefined): the GI50 is 2.73 µM and the TGI was 11.8 µM.

Turning to `NC(=O)c1cc(Br)ccc1NC(=O)/C=C/c1ccccc1`, the GI50 is 14.8 µM and the TGI was above 100 µM.

Consider `O=c1c(-c2ccccc2)c(SCCN2CCOCC2)n(-c2ccccc2)c(=S)n1-c1ccccc1`, for which the TGI is above 100 µM.

Regarding `Cc1nc2c3c(ccc2[nH]c1=O)C(=O)c1ccccc1C3=O`, the TGI is above 100 µM.

Take `CCCCCCCCCCCCSC(=S)c1c(C)[nH]n(CCCCCCCCCCCC)c1=O`: the TGI was above 100 µM.

As for `O=S(=O)(NCCCNc1cc(-c2cn(-c3ccccc3)nc2-c2cccc(O)c2)ccn1)c1ccc(Br)cc1`, the GI50 was 3.93 µM and the TGI came out at 34 µM.

For the compound `O=S(=O)(O)c1ccc2c(N=Nc3ccccc3)c(O)ccc2c1`, the TGI was above 100 µM.

On to `Cc1cc2c(cc1Cl)SC(c1ccccc1O)NS2(=O)=O` (centres undefined), for which the TGI is above 100 µM.

Consider `N#Cc1c(N/N=C\c2ccc(Cl)cc2)nc(N)nc1N1CCOCC1`, for which the GI50 was 39.8 µM and the TGI was above 100 µM.

With `O=C(NC(Cc1ccc(Cl)cc1)C(=O)O)c1ccc(I)cc1` (centres undefined), the TGI was above 100 µM.

Regarding `COC12OCCN(C)C1=CC(=O)C1(C)N=NCC12` (centres undefined), the TGI is above 100 µM.

In turn, `Nc1cc(Cl)ccc1SSc1ccc(Cl)cc1N` had a TGI of 36.6 µM.

As for `Cn1c(-c2c(N)n(Cc3ccc(F)cc3)c3nc(C#N)c(C#N)nc23)nc2ccccc21`, the GI50 is 0.625 µM and the TGI came out at 4.87 µM.

`CCCc1cn2c(/C=N/N=C(N)N)c(-c3ccc(Cl)c([N+](=O)[O-])c3)nc2s1` returned a TGI of 3.23 µM.

With `O=C1c2cc(F)ccc2-c2c1c1ccc([N+](=O)[O-])cc1c(=O)n2CCCBr`, the GI50 was 41.9 µM and the TGI is above 100 µM.

For `O=[N+]([O-])C=C1c2ccccc2-c2ccccc21`, the TGI amounted to 31.5 µM.

With `CN(C)Cc1c(C(=O)NCCOc2ccc(C(=O)NO)cc2)oc2ccccc12`, the GI50 is 0.359 µM and the TGI is above 100 µM.

`C=CC1(c2ccc3ccccc3c2)OCC(CC)O1` (centres undefined): the TGI was above 100 µM.

Turning to `CCNc1nnc(-c2ccccc2Nc2ccccc2-c2nnc(NCC)s2)s1`, the TGI was above 100 µM.

Compound `O=[N+]([O-])C(/C=C(\Cl)[N+](=O)[O-])=C(N1CCCCC1)N1CCCCC1` came in with a TGI above 100 µM.

Compound `Cn1cc(-c2nnc(-c3ccc(Cl)cc3)[nH]c2=O)c2ccccc21` displayed a TGI above 78.6 µM.

`CC(C)C[C@@H](C=O)NC(=O)[C@H](CC(C)C)NC(=O)[C@H](CC(C)C)NC(=O)OCc1ccccc1` (Cbz-Leu-Leu-Leu-aldehyde): the GI50 was 1.27 µM and the TGI amounted to 7.64 µM.

`CCOC(=O)C1SC(=Nc2ccc(Cl)cc2Cl)N=C1C` (centres undefined) came in with a TGI above 100 µM.

Regarding `O=c1[nH]nc(Cc2ccccc2)n1/N=C/c1ccc([N+](=O)[O-])cc1`, the TGI is above 100 µM.

For the compound `O=c1[nH]c2cc([N+](=O)[O-])c(N/N=C/c3ccc(Cl)cc3Cl)c([N+](=O)[O-])c2[nH]1`, the TGI amounted to 57.5 µM.

The compound `O=C(Cc1nc2ccc([N+](=O)[O-])cc2[nH]c1=O)C(=O)Nc1ccccc1[N+](=O)[O-]` showed a TGI above 100 µM.

As for `C=C(Cl)C(C)(Cl)CCC(Cl)C(C)C` (centres undefined), the TGI was above 100 µM.

As for `O=C1NC(=NCCc2ccccn2)S/C1=C\c1ccc2ncccc2c1`, the GI50 is 7.51 µM and the TGI was above 25 µM.

The compound `CCOC(=O)/C(=C\NC(C)(C)CO)c1nc2ccccc2[nH]1` gave a TGI above 100 µM.

As to `CCOC(=O)C1(N)CC1`, the TGI is above 100 µM.

Compound `O=C(CSSCC(=O)OCCS(=O)(=O)Nc1ccc(Br)cc1)OCCS(=O)(=O)Nc1ccc(Br)cc1` gave a TGI above 100 µM.

In turn, `O=c1[nH]c2c(c(=O)[nH]1)C(c1ccc([N+](=O)[O-])cc1)c1c([nH]c(=O)[nH]c1=O)O2` yielded a TGI above 100 µM.

Compound `N#Cc1c(-c2ccc(Cl)cc2)c2c([nH]c1=O)-c1cc([N+](=O)[O-])ccc1CCC2` registered a TGI of 48.7 µM.

As for `C=C1c2nc3ccccc3n2C=C(c2ccc(Cl)cc2)N1c1ccc(OCCN2CCCCC2)cc1`, the GI50 is 10.7 µM and the TGI is above 100 µM.

Regarding `Oc1ccccc1/C=N\NC(=S)N/N=C/c1ccccc1O`, the GI50 was 0.617 µM and the TGI was determined as 11.7 µM.

Take `NC(N)=NS(=O)(=O)c1ccc(NC(=O)c2cccc3c(N)c4ccccc4nc23)cc1`: the TGI was above 100 µM.

`C/C(=N/O)c1sc(-c2nc(C)c(/C(C)=N\O)s2)nc1C` had a TGI above 100 µM.

Consider `O=C(CSSCC(=O)Nc1ccc(Br)cc1)Nc1ccc(Br)cc1`, for which the TGI stood at 91.3 µM.

In turn, `COC(=O)C(c1ccc(OC)cc1)N1C(=O)[C@@H](NC(=O)c2ccccc2)[C@H]1[C@@H](C)O` (some centres undefined) displayed a TGI above 100 µM.

As to `N#CCc1nnc(N)o1`, the TGI was above 100 µM.

`COc1ccc2c(c1)CCCc1c-2nc2ccccc2c1N` returned a TGI of 22.3 µM.

Turning to `CCCN(CCC)c1ccc(C=O)c(C)c1`, the GI50 is above 100 µM and the TGI is above 100 µM.

For the compound `COC(=O)c1oc2c(C(=O)/C=C/c3ccc(OC)cc3)c(OCCN3CCOCC3)ccc2c1C`, the GI50 was 2.49 µM and the TGI came out at 8.51 µM.

As for `C[C@H]1CCC/C=C/[C@@H]2C[C@H](O)C[C@H]2[C@H](O)/C=C/C(=O)O1`, the GI50 was 0.0757 µM.

Consider `O=C(O)CN(c1ccc(F)cc1)S(=O)(=O)c1ccccc1`, for which the TGI is above 100 µM.

For `CN1CC2=C(NC(=S)NC2c2ccccc2Cl)/C(=C/c2ccccc2Cl)C1` (centres undefined), the TGI is above 100 µM.

`NC(=O)Cn1c(=O)oc2cc(C(=O)CN3CCOCC3)ccc21` yielded a TGI above 100 µM.

On to `CCCCCCCCCCCCCCCCN(CC)CC`, for which the GI50 is 12.6 µM and the TGI was 25.2 µM.

Turning to `C=C1CC2C3C=C(C)C4=CC(=O)CC[C@]4(C)C3CC[C@]2(C)[C@@]1(OC(C)=O)C(C)=O` (some centres undefined), the GI50 was above 100 µM and the TGI was above 100 µM.

Regarding `CCCCCCCCCCCCCCCCCC(=O)OCC1OC(OC)C(NC(=O)N(CCCl)N=O)C(O)C1O` (centres undefined), the TGI is above 100 µM.

For the origin of these results see PubChem BioAssay (NCI).
